Experimental data published in the DeepSol protein solubility set.

assay: soluble on expression in E. coli; label from the status in PepcDB or PDB records

Row | Sequence | soluble on expression in E. coli
1 | IGDEPLENYLDTEYFGTIGIGTPAQDFTVIFDTGSSNLWVPSVYCSSLACSDHNQFNPDDSSTFEATSQELSITYGTGSMTGILGYDTVQVGGISDTNQIFGLSETEPGSFLYYAPFDGILGLAYPSISASGATPVFDNLWDQGLVSQDLFSVYLSSNDDSGSVVLLGGIDSSYYTGSLNWVPVSVEGYWQITLDSITMDGETIACSGGCQAIVDTGTSLLTGPTSAIANIQSDIGASENSDGEMVISCSSIDSLPDIVFTINGVQYPLSPSAYILQDDDSCTSGFEGMDVPTSSGELWILGDVFIRQYYTVFDRANNKVGLAPVA | soluble
2 | MGKRAAHIGLRALADLATPMAVRVAATLRVADHIAAGHRTAAEIASAAGAHADSLDRLLRHLVAVGLFTRDGQGVYGLTEFGEQLRDDHAAGKRKWLDMNSAVGRGDLGFVELAHSIRTGQPAYPVRYGTSFWEDLGSDPVLSASFDTLMSHHLELDYTGIAAKYDWAALGHVVDVGGGSGGLLSALLTAHEDLSGTVLDLQGPASAAHRRFLDTGLSGRAQVVVGSFFDPLPAGAGGYVLSAVLHDWDDLSAVAILRRCAEAAGSGGVVLVIEAVAGDEHAGTGMDLRMLTYFGGKERSLAELGELAAQAGLAVRAAHPISYVSIVEMTAL | soluble
3 | MKSLSPAPLVELQQICKHYTSGQNVVKALDGVDLTIRHGEFLAILGPSGSGKSTLMNVLGCLDKPTAGRYQLDGHPVDSLSTQQLAAIRNQKIGFVFQSFNLLEYASALDNVALPLVYAGVKAKDRRRRATELLTRVGLADRLDHKPNQLSGGQKQRVAIARALINQPQILLADEPTGALDSKSGAEIEALFNELHREGRTIIVVTHDNELAKRTKRIVTIRDGQVVSDEPTA | not soluble
